According to ChEMBL document CHEMBL1938231 (J Med Chem, 2011):

Legend:
[1] = biological target: T1, Tyrosine-protein kinase JAK2 (Homo sapiens, UniProt O60674); assay type: cell-based, Blood
[2] = biological target: T1, Tyrosine-protein kinase JAK2; assay type: cell-based
[3] = biological target: T1, Tyrosine-protein kinase JAK2
[4] = biological target: T1, Tyrosine-protein kinase JAK2; details: baf3

SMILES	IC50 [1] [nM]	IC50 [2] [nM]	IC50 [3] [nM]	IC50 [4] [nM]
NC(=O)c1cnc(N)c2cc(-c3ccc(N4CCOCC4)cc3)sc12	> 25000	761	19	> 25000
CCNC(=O)c1cnc(N)c2cc(-c3ccc(N4CCOCC4)cc3)sc12	–	–	48	–
Nc1ncc(C(=O)Nc2ccccc2)c2sc(-c3ccc(N4CCOCC4)cc3)cc12	–	–	72	–
Nc1ncc(C(=O)NCc2ccccc2)c2sc(-c3ccc(N4CCOCC4)cc3)cc12	–	–	100	–
CC(C)(C)NC(=O)c1cnc(N)c2cc(-c3ccc(N4CCOCC4)cc3)sc12	–	–	1170	–
CNC(=O)c1cnc(N)c2cc(-c3ccccc3)sc12	–	–	58	–
CNC(=O)c1cnc(N)c2cc(-c3ccc(C)cc3)sc12	–	–	27	12600
CNC(=O)c1cnc(N)c2cc(-c3ccc(C(C)(C)C)cc3)sc12	–	–	10	–
CNC(=O)c1cnc(N)c2cc(-c3ccc(C(C)(C)C#N)cc3)sc12	–	–	4	1370
CNC(=O)c1cnc(N)c2cc(-c3ccc(S(=O)(=O)NC(C)(C)C)cc3)sc12	1480	48	–	1010
CC(C)(C)NS(=O)(=O)c1ccc(-c2cc3c(N)ncc(C(=O)NCCO)c3s2)cc1	–	–	8	–
COCCNC(=O)c1cnc(N)c2cc(-c3ccc(S(=O)(=O)NC(C)(C)C)cc3)sc12	3950	135	3	959
CN(C)CCNC(=O)c1cnc(N)c2cc(-c3ccc(S(=O)(=O)NC(C)(C)C)cc3)sc12	7830	515	8	2400
CC(C)(C)NS(=O)(=O)c1ccc(-c2cc3c(N)ncc(C(=O)NCCN4CCCCC4)c3s2)cc1	–	–	5	2130
CC(C)(C)NS(=O)(=O)c1ccc(-c2cc3c(N)ncc(C(=O)NCCN4CCOCC4)c3s2)cc1	2190	148	2	1620
CC(C)(C)NS(=O)(=O)c1ccc(-c2cc3c(N)ncc(C(=O)NCCCN4CCOCC4)c3s2)cc1	–	–	5	4720
